The full ranking holds about 110,000 compounds; the median of “z-score” is about -0.1, and the highest 2% start at about 2. This is one part of the list. Active and inactive are the calls of the source.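 Rule for the calls: active = z-score in the third read window above 3 or below -3; inactive = the rest.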
biological target: Metabotropic glutamate receptor 8 (Rattus norvegicus) (UniProt P70579); assay: mGluR8 Gi/Go-coupled signaling modulation – cell-based, rat, thallium flux, HTS, primary screen (AID 488969); details: HEK293 rat mGluR8, GIRK (G protein-gated inwardly rectifying potassium channel) thallium flux, FluoZin2; at 10 µM; stronger effect = higher value; submaximal glutamate (EC20) added with thallium
Sequence of UniProt P70579 (P70579 whole entry, looked up): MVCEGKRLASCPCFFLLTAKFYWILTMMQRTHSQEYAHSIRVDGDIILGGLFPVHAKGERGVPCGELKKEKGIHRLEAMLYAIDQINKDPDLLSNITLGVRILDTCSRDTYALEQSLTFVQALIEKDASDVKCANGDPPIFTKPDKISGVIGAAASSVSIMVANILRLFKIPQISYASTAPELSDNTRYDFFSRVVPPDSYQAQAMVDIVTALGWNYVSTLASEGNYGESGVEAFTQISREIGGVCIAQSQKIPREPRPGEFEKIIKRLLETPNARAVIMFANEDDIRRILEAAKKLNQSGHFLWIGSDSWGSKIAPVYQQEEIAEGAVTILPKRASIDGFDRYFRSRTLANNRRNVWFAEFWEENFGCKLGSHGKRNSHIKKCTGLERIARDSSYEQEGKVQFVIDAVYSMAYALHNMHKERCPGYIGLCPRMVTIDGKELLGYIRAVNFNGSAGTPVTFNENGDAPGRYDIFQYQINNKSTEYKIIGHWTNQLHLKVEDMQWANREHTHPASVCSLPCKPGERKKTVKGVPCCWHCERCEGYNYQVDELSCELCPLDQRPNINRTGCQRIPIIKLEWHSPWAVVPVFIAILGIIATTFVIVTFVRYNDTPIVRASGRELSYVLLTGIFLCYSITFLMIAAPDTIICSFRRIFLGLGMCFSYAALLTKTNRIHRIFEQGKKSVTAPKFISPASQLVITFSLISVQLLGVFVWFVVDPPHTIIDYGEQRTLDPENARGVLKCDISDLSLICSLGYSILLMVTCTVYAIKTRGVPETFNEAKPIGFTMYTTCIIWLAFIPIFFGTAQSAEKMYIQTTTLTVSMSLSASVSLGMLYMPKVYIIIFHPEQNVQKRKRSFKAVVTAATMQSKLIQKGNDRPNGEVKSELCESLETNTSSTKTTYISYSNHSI

| SMILES | z-score |
| --- | --- |
| COc1ccccc1-c1cc(C(=O)Nc2sc3c(c2C#N)CCC(C)C3)c2ccccc2n1 (stereo not given) | 1.94 |
| Cc1ccc(N2CC(C(=O)Nc3ccccc3C(=O)NC3CCCCC3)CC2=O)cc1C (stereo not given) | -1.83 |
| COc1ccc(-c2nc(N)n[nH]2)cc1OC | 1.23 |
| CCCCN(Cc1cc2cc(OC)ccc2[nH]c1=O)C(=O)c1ccco1 | -0.346 |
| CN(CC(=O)Nc1ccc(N2CCOCC2)cc1)CC(=O)Nc1ccccc1C#N | -0.249 |
| CCOC(=O)C1CCN(Cc2c(F)cccc2Cl)CC1 | -0.196 |
| COCc1nc2ccccc2n1Cc1cccc(C)c1 | -0.395 |
| CCC(=O)Nc1ccc(C(=O)Nc2ccc3c(c2)OCO3)cc1 | -0.396 |
| O=C(COC(=O)CC(c1ccccc1)c1ccccc1)Nc1c(F)cccc1F | 0.185 |
| CCC(Oc1ccc2c(c1)C(=O)CC(C)(C)O2)C(=O)NCCN1CCCCCC1 (stereo not given) | -0.771 |
| CCOc1ccc2ccccc2c1/C=N\NC(=O)OC | 0.00163 |
| CC1(C)CN(c2ccccc2)N(C(=O)c2ccc(C#N)cc2)C1=O | -0.0177 |
| CCOc1cc2[nH]c(=S)n(C(C)C)c(=O)c2cc1OCC | active: 9.84 |
| CCOC(=O)c1sc2ncnc(N3CCN(c4ccc(OC)cc4)CC3)c2c1C | -0.164 |
| Cc1onc(-c2ccccc2)c1C(=O)NCCc1c[nH]c2ccccc12 | -0.024 |
| COC(=O)c1cc(NS(=O)(=O)c2ccc(N3CCOCC3)c(NC(C)=O)c2)cc(C(=O)OC)c1 | -0.248 |
| CC(C)N1CC(C(=O)O)CC1=O (stereo not given) | -0.0306 |
| Cn1c(SCC(=O)Nc2ccccc2F)nnc1-c1ccc(S(=O)(=O)N2CCOCC2)cc1 | 1.5 |
| COc1cc(-c2nc3oc4ccccc4c(=O)c3c(=O)n2Cc2ccco2)cc(OC)c1OC | -0.0137 |
| CC(Nc1nc2ncn(Cc3ccccc3)c2c(=O)[nH]1)C(=O)O (stereo not given) | 0.0134 |
| O=C(CCc1ccccc1)NC(=S)Nc1cc(C(F)(F)F)ccc1N1CCOCC1 | 0.334 |
| C=CCn1c(SCC(=O)Nc2ccc3c(c2)OCO3)nnc1-c1ccccc1OC | 0.559 |
| Cc1ccc(-c2csc(-c3c[nH]c4ccccc34)n2)cc1 | 0.0181 |
| CC(NS(=O)(=O)c1ccccc1)C1COc2ccccc2O1 (stereo not given) | -0.174 |
| O=C(NCc1ccco1)c1nn2c(C(F)(F)F)cc(-c3cccs3)nc2c1Br | -0.597 |
| CCOc1ccc(NC(=O)CC2NCCNC2=O)cc1 (stereo not given) | -0.295 |
| COc1cccc(Oc2ccc(N)cn2)c1 | 0.371 |
| Cc1ccc2c(c1)sc1nc(=O)n(-c3ccc(Cl)c(Cl)c3)c(=O)n12 | 0.00486 |
| COc1cc2c(cc1OC)CN(C(=O)C1(c3ccccc3)CC1)CC2 | -0.166 |
| CCOC(=O)c1cc(CC)sc1NC(=O)c1cccc(N2C(=O)CCC2=O)c1 | -0.0657 |

— PubChem BioAssay AID488969 (Vanderbilt High Throughput Screening Facility, 2010)
